# Where “and” joins values, the source holds several entries; their conditions need not be identical. Equal values may be shown once. Whole data set: some 5,300 compounds, median “PER2::LUC luminescence relative to vehicle control” near 0.96, cut for the highest 2% near 1.3. The list shows a part of the results.
# Test system: mPer2Luc MEF
# Test: PER2::LUC luminescence relative to vehicle control (fold of vehicle); higher = higher PER2::LUC reporter signal
# Details: 10 µM
# Outline: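 The value is PER2::LUC luminescence expressed as fold of vehicle control. Mouse embryonic fibroblasts carrying the mPer2Luc reporter were seeded at ~3000 cells per well in 384-well plates and grown in DMEM with 10% FBS at 37 °C and 5% CO2. Compounds from commercial libraries were added at 10 μM 48 h after seeding, and luminescence was read with the ONE-Glo luciferase assay system 24 h and 30 h after treatment, followed by an alamarBlue viability assay.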
compound,measurement,setting,value
CN(C(=O)CNC(=O)[C@@H](CC[S+](C)[O-])NC(=O)[C@@H](N)Cc1ccc(O)cc1)[C@H](CO)Cc1ccccc1 (some centres undefined),PER2::LUC luminescence,time after treatment 24 h,1.01
same,PER2::LUC luminescence,time after treatment 30 h,0.865
CC(C)=CCCC1(C)C=Cc2c(O)c3c(c(CC=C(C)C)c2O1)OC12C(CC4CC1C(C)(C)OC2(C/C=C(/C)C(=O)O)C4O)C3=O (centres undefined),PER2::LUC luminescence,time after treatment 24 h,0.822
same,PER2::LUC luminescence,time after treatment 30 h,1.03
CCCN(CCC)CCc1c[nH]c2ccc(C(N)=O)cc12,PER2::LUC luminescence,time after treatment 24 h,1.08 and 0.996
same,PER2::LUC luminescence,time after treatment 30 h,0.893 and 0.932
C[C@H]1CCCC(=O)CCC/C=C/c2cc(O)cc(O)c2C(=O)O1,PER2::LUC luminescence,time after treatment 24 h,0.967
same,PER2::LUC luminescence,time after treatment 30 h,1.03
CN1Cc2ccccc2[C@@H]2c3cccc4[nH]cc(c34)C[C@H]21,PER2::LUC luminescence,time after treatment 24 h,0.985
same,PER2::LUC luminescence,time after treatment 30 h,0.823
O=C(N[C@H]1CN2CCC1CC2)c1ccc(Cl)cc1,PER2::LUC luminescence,time after treatment 24 h,0.933
same,PER2::LUC luminescence,time after treatment 30 h,0.872
O=[N+]([O-])c1ccc2nc(N3CCNCC3)ccc2c1,PER2::LUC luminescence,time after treatment 24 h,0.993 and 0.677
same,PER2::LUC luminescence,time after treatment 30 h,0.966 and 0.716
C=C[C@H]1CN2CC[C@H]1C[C@H]2[C@H](OC(=O)OCC)c1ccnc2ccc(OC)cc12,PER2::LUC luminescence,time after treatment 24 h,0.868 and 0.922
same,PER2::LUC luminescence,time after treatment 30 h,0.903 and 0.845
CC(C)[C@@H]1NC(=O)[C@H](C)OC(=O)[C@@H](C(C)C)NC(=O)[C@@H](C(C)C)OC(=O)[C@H](C(C)C)NC(=O)[C@H](C)OC(=O)[C@@H](C(C)C)NC(=O)[C@@H](C(C)C)OC(=O)[C@H](C(C)C)NC(=O)[C@H](C)OC(=O)[C@@H](C(C)C)NC(=O)[C@@H](C(C)C)OC1=O,PER2::LUC luminescence,time after treatment 24 h,0.238
same,PER2::LUC luminescence,time after treatment 30 h,0.28
CC1(C)C(=O)N(c2ccc(C#N)c(C(F)(F)F)c2)C(=S)N1c1ccc(C(N)=O)c(F)c1,PER2::LUC luminescence,time after treatment 24 h,1.06
same,PER2::LUC luminescence,time after treatment 30 h,1.11
C[C@]12CC[C@H]3[C@@H](CCC4=CC(=O)CC[C@@H]43)[C@@H]1CC[C@@H]2O,PER2::LUC luminescence,time after treatment 24 h,0.951 and 0.973
same,PER2::LUC luminescence,time after treatment 30 h,1.02 and 0.875
C=CC[C@]1(O)CC[C@H]2[C@@H]3CCC4=CCCC[C@@H]4[C@H]3CC[C@@]21C,PER2::LUC luminescence,time after treatment 24 h,1.24
same,PER2::LUC luminescence,time after treatment 30 h,1.24
C[C@H](N)Cc1cnc[nH]1,PER2::LUC luminescence,time after treatment 24 h,0.983
same,PER2::LUC luminescence,time after treatment 30 h,1.02
CC12CCC3C(CCC4=C(O)C(=O)CCC43C)C1CCC2=O (centres undefined),PER2::LUC luminescence,time after treatment 24 h,1.09
same,PER2::LUC luminescence,time after treatment 30 h,1.1
Cc1cc(O)ccc1Cl,PER2::LUC luminescence,time after treatment 24 h,1.06 and 1.05
same,PER2::LUC luminescence,time after treatment 30 h,1.07
c1ccc(CCCCN2CCC(c3ccccc3)CC2)cc1,PER2::LUC luminescence,time after treatment 24 h,0.938
same,PER2::LUC luminescence,time after treatment 30 h,0.724
C=C(C)[C@H]1CN[C@H](C(=O)O)[C@H]1CC(=O)O,PER2::LUC luminescence,time after treatment 24 h,1.06
same,PER2::LUC luminescence,time after treatment 30 h,1.16
CCCC(=O)O[C@@H]1[C@@H](C)[C@@]2(O)[C@@H](C=C(CO)C[C@]3(O)C(=O)C(C)=C[C@@H]23)[C@@H]2C(C)(C)[C@]12OC(=O)CCC,PER2::LUC luminescence,time after treatment 24 h,1.13
same,PER2::LUC luminescence,time after treatment 30 h,0.899
CC(=O)O[C@H]1C[C@@H](OC(C)=O)C(C)(C)C2C[C@@H](OC(C)=O)[C@]3(C)C(CC[C@@]4(C)[C@H](c5ccoc5)C(=O)[C@H]5O[C@]543)[C@]21C (some centres undefined),PER2::LUC luminescence,time after treatment 24 h,0.843
same,PER2::LUC luminescence,time after treatment 30 h,0.847
N[C@@H](Cn1ccc(=O)[nH]c1=O)C(=O)O,PER2::LUC luminescence,time after treatment 24 h,1.08
same,PER2::LUC luminescence,time after treatment 30 h,0.995
C[C@@H]1CC[C@@]2(OC1)O[C@H]1[C@@H](O)[C@H]3[C@@H]4CC[C@H]5C[C@@H](O[C@@H]6O[C@H](CO)[C@H](O[C@@H]7O[C@H](CO)[C@@H](O)[C@H](O[C@@H]8OC[C@@H](O)[C@H](O)[C@H]8O)[C@H]7O[C@@H]7O[C@H](CO)[C@H](O)[C@H](O[C@@H]8O[C@H](CO)[C@@H](O)[C@H](O)[C@H]8O)[C@H]7O)[C@H](O)[C@H]6O)[C@H](O)C[C@]5(C)[C@H]4CC[C@]3(C)[C@H]1[C@@H]2C,PER2::LUC luminescence,time after treatment 24 h,0.913
same,PER2::LUC luminescence,time after treatment 30 h,1.01
CN1[C@@H]2CC[C@H]1C[C@@H](OC(=O)[C@H](CO)c1ccccc1)C2,PER2::LUC luminescence,time after treatment 24 h,1.01 and 0.833
same,PER2::LUC luminescence,time after treatment 30 h,0.999 and 0.898
Cc1ccc(-c2nc3ccc(C)cn3c2CC(=O)N(C)C)cc1,PER2::LUC luminescence,time after treatment 24 h,0.474 and 1.21
same,PER2::LUC luminescence,time after treatment 30 h,0.954 and 0.98
Nc1nc(N)nc(NC2CC2)n1,PER2::LUC luminescence,time after treatment 24 h,1.11
same,PER2::LUC luminescence,time after treatment 30 h,0.84
CN(C)CCN(C)CCc1ccc(Cl)c(Cl)c1,PER2::LUC luminescence,time after treatment 24 h,0.82 and 0.866
same,PER2::LUC luminescence,time after treatment 30 h,0.818 and 0.766
C[C@]12CC[C@H](O)C[C@H]1CC[C@@H]1[C@@H]2CC[C@]2(C)[C@@H](c3ccc(=O)oc3)CC[C@]12O,PER2::LUC luminescence,time after treatment 24 h,1.14
same,PER2::LUC luminescence,time after treatment 30 h,0.987
"C[N+]1([O-])[C@@H]2CC(OC(=O)[C@H](CO)c3ccccc3)C[C@H]1[C@@H]1O[C@@H]12 (single isomer, unassigned; (-))",PER2::LUC luminescence,time after treatment 24 h,0.991
same,PER2::LUC luminescence,time after treatment 30 h,1.04
C[C@H](N)CN1CCc2ccc(Br)cc21,PER2::LUC luminescence,time after treatment 24 h,0.914
same,PER2::LUC luminescence,time after treatment 30 h,0.752
C[C@H]1O[C@H](O[C@H]2[C@H](O)[C@@H](O)[C@@H](O)[C@H](O)[C@@H]2O)[C@@H](N)C[C@@H]1NC(=N)C(=O)O,PER2::LUC luminescence,time after treatment 24 h,0.926
same,PER2::LUC luminescence,time after treatment 30 h,0.941
O=[N+]([O-])c1cc(O)c(O)c([N+](=O)[O-])c1,PER2::LUC luminescence,time after treatment 24 h,1.04
same,PER2::LUC luminescence,time after treatment 30 h,0.763
O=C(O)Cc1cccnc1C(=O)O,PER2::LUC luminescence,time after treatment 24 h,0.972
same,PER2::LUC luminescence,time after treatment 30 h,0.93
CN[C@@H]1C[C@@H](c2ccc(Cl)c(Cl)c2)c2ccccc21,PER2::LUC luminescence,time after treatment 24 h,0.87
same,PER2::LUC luminescence,time after treatment 30 h,0.694
C[C@H]([C@H](O)CCC(C)(C)O)[C@H]1CC[C@@]2(O)C3=CC(=O)[C@@H]4C[C@@H](O)[C@@H](O)C[C@]4(C)[C@H]3CC[C@]12C,PER2::LUC luminescence,time after treatment 24 h,1.03
same,PER2::LUC luminescence,time after treatment 30 h,0.998
C=CCN1C[C@H](C)N([C@H](c2ccc(C(=O)N(CC)CC)cc2)c2cccc(OC)c2)C[C@H]1C,PER2::LUC luminescence,time after treatment 24 h,0.99
same,PER2::LUC luminescence,time after treatment 30 h,0.848
O=[N+]([O-])O[C@@H]1CO[C@H]2[C@@H]1OC[C@@H]2O,PER2::LUC luminescence,time after treatment 24 h,0.923
same,PER2::LUC luminescence,time after treatment 30 h,0.883
NC(=O)c1ccc(N)nc1,PER2::LUC luminescence,time after treatment 24 h,0.987
same,PER2::LUC luminescence,time after treatment 30 h,0.959
N[C@@H](Cc1ccc(N(CCCl)CCCl)cc1)C(=O)O,PER2::LUC luminescence,time after treatment 24 h,0.566
same,PER2::LUC luminescence,time after treatment 30 h,0.521
